# The supplement of paper PMC8728848
# The other results are listed elsewhere or left out.
# B1: SAOUHSC 00176 (Staphylococcus aureus) (protein)
# chain: MSKILKCITLAVVMLLIVTACGPNRSKEDIDKALNKDNSKDKPNQLTMWVDGDKQMAFYKKITDQYTKKTGIKVKLVNIGQNDQLENISLDAPAGKGPDIFFLAHDNTGSAYLQGLAAEIKLSKDELKGFNKQALKAMNYDNKQLALPAIVETTALFYNKKLVKNAPQTLEEVEANAAKLTDSKKKQYGMLFDAKNFYFNYPFLFGNDDYIFKKNGSEYDIHQLGLNSKHVVKNAERLQKWYDKGYLPKAATHDVMIGLFKEGKVGQFVTGPWNINEYQETFGKDLGVTTLPTDGGKPMKPFLGVRGWYLSEYSKHKYWAKDLMLYITSKDTLQKYTDEMSEITGRVDVKSSNPNLKVFEKQARHAEPMPNIPEMRQVWEPMGNASIFISNGKNPKQALDEATNDITQNIKILHPSQNDKKGD
# How the values were obtained:
# Assay in all cases: glycan array binding signal (z-score within array); higher = stronger binding
# Settings in all cases: glycan notation: IUPAC condensed, linker removed
# [1] = target: Gal(b1-3)GlcNAc(b1-6)[Gal(b1-3)]GalNAc
# Procedure, shortened: (§1)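 Glycan array data were curated from 3228 arrays in the Consortium for Functional Glycomics database and kept only where the protein sequence was available. Glycan names were converted to IUPAC-condensed notation, and columns mapping to the same glycan were averaged. The binding signal is a within-array Z-score, averaged across arrays of the same protein sequence at different concentrations or buffers and across linkers. Negative Z-scores can be read as non-binding.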
# Gal(b1-3)GlcNAc6S = target: Gal(b1-3)GlcNAc6S
# Procedure, shortened: as §1
# [2] = target: Gal(b1-3)[Fuc(a1-4)]GlcNAc
# Procedure, shortened: as §1
# [3] = target: Gal(b1-3)[Fuc(a1-4)]GlcNAc(b1-2)Man
# Procedure, shortened: as §1
# [4] = target: Gal(b1-3)[Fuc(a1-4)]GlcNAc(b1-2)Man(a1-3)[Gal(b1-3)[Fuc(a1-4)]GlcNAc(b1-2)Man(a1-6)]Man(b1-4)GlcNAc(b1-4)[Fuc(a1-6)]GlcNAc
# Procedure, shortened: as §1
# [5] = target: Gal(b1-3)[Fuc(a1-4)]GlcNAc(b1-3)Gal(b1-3)[Fuc(a1-4)]GlcNAc
# Procedure, shortened: as §1
# [6] = target: Gal(b1-3)[Fuc(a1-4)]GlcNAc(b1-3)Gal(b1-4)[Fuc(a1-3)]GlcNAc
# Procedure, shortened: as §1
# [7] = target: Gal(b1-3)[Fuc(a1-4)]GlcNAc(b1-6)GalNAc
# Procedure, shortened: as §1
# [8] = target: Gal(b1-3)[GlcNAc(b1-6)]GalNAc
# Procedure, shortened: as §1
# [9] = target: Gal(b1-3)[Neu5Ac(a2-6)]GalNAc
# Procedure, shortened: as §1
# [10] = target: Gal(b1-3)[Neu5Ac(a2-6)]GlcNAc(b1-4)Gal(b1-4)Glc
# Procedure, shortened: as §1
# [11] = target: Gal(b1-3)[Neu5Ac(b2-6)]GalNAc
# Procedure, shortened: as §1
# Gal(b1-4)Gal = target: Gal(b1-4)Gal
# Procedure, shortened: as §1
# [12] = target: Gal(b1-4)GalNAc(a1-3)[Fuc(a1-2)]Gal(b1-4)GlcNAc
# Procedure, shortened: as §1
# [13] = target: Gal(b1-4)GalNAc(b1-3)[Fuc(a1-2)]Gal(b1-4)GlcNAc
# Procedure, shortened: as §1
# Gal(b1-4)Glc = target: Gal(b1-4)Glc
# Procedure, shortened: as §1
# Gal(b1-4)Glc6S = target: Gal(b1-4)Glc6S
# Procedure, shortened: as §1
# Gal(b1-4)GlcNAc = target: Gal(b1-4)GlcNAc
# Procedure, shortened: as §1
# [14] = target: Gal(b1-4)GlcNAc(a1-6)Gal(b1-4)GlcNAc
# Procedure, shortened: as §1
# Gal(b1-4)GlcNAc(b1-2)Man = target: Gal(b1-4)GlcNAc(b1-2)Man
# Procedure, shortened: as §1
# [15] = target: Gal(b1-4)GlcNAc(b1-2)Man(a1-3)Man(b1-4)GlcNAc(b1-4)GlcNAc
# Procedure, shortened: as §1
# [16] = target: Gal(b1-4)GlcNAc(b1-2)Man(a1-3)[Gal(b1-4)GlcNAc(b1-2)Man(a1-6)]Man(b1-4)GlcNAc(b1-4)GlcNAc
# Procedure, shortened: as §1
# [17] = target: Gal(b1-4)GlcNAc(b1-2)Man(a1-3)[Gal(b1-4)GlcNAc(b1-2)Man(a1-6)]Man(b1-4)GlcNAc(b1-4)[Fuc(a1-6)]GlcNAc
# Procedure, shortened: as §1
# [18] = target: Gal(b1-4)GlcNAc(b1-2)Man(a1-3)[Gal(b1-4)GlcNAc(b1-2)Man(a1-6)][Gal(b1-4)GlcNAc(b1-4)]Man(b1-4)GlcNAc(b1-4)[Fuc(a1-6)]GlcNAc
# Procedure, shortened: as §1
# [19] = target: Gal(b1-4)GlcNAc(b1-2)Man(a1-3)[Gal(b1-4)GlcNAc(b1-2)Man(a1-6)][GlcNAc(b1-4)]Man(b1-4)GlcNAc(b1-4)[Fuc(a1-6)]GlcNAc
# Procedure, shortened: as §1
# [20] = target: Gal(b1-4)GlcNAc(b1-2)Man(a1-3)[GlcNAc(b1-2)Man(a1-6)]Man(b1-4)GlcNAc(b1-4)GlcNAc
# Procedure, shortened: as §1
# [21] = target: Gal(b1-4)GlcNAc(b1-2)Man(a1-3)[GlcNAc(b1-4)][Gal(b1-4)GlcNAc(b1-2)Man(a1-6)]Man(b1-4)GlcNAc(b1-4)GlcNAc
# Procedure, shortened: as §1
# [22] = target: Gal(b1-4)GlcNAc(b1-2)Man(a1-3)[Man(a1-6)]Man(b1-4)GlcNAc(b1-4)GlcNAc
# Procedure, shortened: as §1
# [23] = target: Gal(b1-4)GlcNAc(b1-2)Man(a1-6)Man(b1-4)GlcNAc(b1-4)GlcNAc
# Procedure, shortened: as §1
# [24] = target: Gal(b1-4)GlcNAc(b1-2)Man(a1-6)[GlcNAc(b1-2)Man(a1-3)]Man(b1-4)GlcNAc(b1-4)GlcNAc
# Procedure, shortened: as §1
# [25] = target: Gal(b1-4)GlcNAc(b1-2)Man(a1-6)[Man(a1-3)]Man(b1-4)GlcNAc(b1-4)GlcNAc
# Procedure, shortened: as §1
# [26] = target: Gal(b1-4)GlcNAc(b1-2)[Gal(b1-4)GlcNAc(b1-4)]Man(a1-3)[Gal(b1-4)GlcNAc(b1-2)Man(a1-6)]Man(b1-4)GlcNAc(b1-4)GlcNAc
# Procedure, shortened: as §1
# [27] = target: Gal(b1-4)GlcNAc(b1-2)[Gal(b1-4)GlcNAc(b1-4)]Man(a1-3)[Gal(b1-4)GlcNAc(b1-2)[Gal(b1-4)GlcNAc(b1-6)]Man(a1-6)]Man(b1-4)GlcNAc(b1-4)GlcNAc
# Procedure, shortened: as §1
# [28] = target: Gal(b1-4)GlcNAc(b1-2)[Gal(b1-4)GlcNAc(b1-4)]Man(a1-3)[GlcNAc(b1-4)][Gal(b1-4)GlcNAc(b1-2)Man(a1-6)]Man(b1-4)GlcNAc(b1-4)GlcNAc
# Procedure, shortened: as §1
# [29] = target: Gal(b1-4)GlcNAc(b1-2)[Gal(b1-4)GlcNAc(b1-4)]Man(a1-3)[GlcNAc(b1-4)][Gal(b1-4)GlcNAc(b1-2)[Gal(b1-4)GlcNAc(b1-6)]Man(a1-6)]Man(b1-4)GlcNAc(b1-4)GlcNAc
# Procedure, shortened: as §1
# [30] = target: Gal(b1-4)GlcNAc(b1-2)[Gal(b1-4)GlcNAc(b1-6)]Man(a1-6)[Gal(b1-4)GlcNAc(b1-2)Man(a1-3)]Man(b1-4)GlcNAc(b1-4)GlcNAc
# Procedure, shortened: as §1
# [31] = target: Gal(b1-4)GlcNAc(b1-2)[Gal(b1-4)GlcNAc(b1-6)]Man(a1-6)[Gal(b1-4)GlcNAc(b1-2)Man(a1-3)]Man(b1-4)GlcNAc(b1-4)[Fuc(a1-6)]GlcNAc
# Procedure, shortened: as §1
binder,measurement,setting,value
B1,glycan array binding signal (z-score),[1],-0.098
same,glycan array binding signal (z-score),Gal(b1-3)GlcNAc6S,-0.116
same,glycan array binding signal (z-score),[2],-0.048
same,glycan array binding signal (z-score),[3],0.062
same,glycan array binding signal (z-score),[4],0.406
same,glycan array binding signal (z-score),[5],-0.218
same,glycan array binding signal (z-score),[6],-0.127
same,glycan array binding signal (z-score),[7],-0.159
same,glycan array binding signal (z-score),[8],0.043
same,glycan array binding signal (z-score),[9],-0.062
same,glycan array binding signal (z-score),[10],-0.049
same,glycan array binding signal (z-score),[11],-0.108
same,glycan array binding signal (z-score),Gal(b1-4)Gal,-0.101
same,glycan array binding signal (z-score),[12],-0.146
same,glycan array binding signal (z-score),[13],-0.108
same,glycan array binding signal (z-score),Gal(b1-4)Glc,0.011
same,glycan array binding signal (z-score),Gal(b1-4)Glc6S,-0.018
same,glycan array binding signal (z-score),Gal(b1-4)GlcNAc,-0.096
same,glycan array binding signal (z-score),[14],-0.168
same,glycan array binding signal (z-score),Gal(b1-4)GlcNAc(b1-2)Man,-0.018
same,glycan array binding signal (z-score),[15],-0.068
same,glycan array binding signal (z-score),[16],-0.149
same,glycan array binding signal (z-score),[17],-0.032
same,glycan array binding signal (z-score),[18],-0.097
same,glycan array binding signal (z-score),[19],-0.127
same,glycan array binding signal (z-score),[20],-0.119
same,glycan array binding signal (z-score),[21],-0.147
same,glycan array binding signal (z-score),[22],1.03
same,glycan array binding signal (z-score),[23],-0.047
same,glycan array binding signal (z-score),[24],-0.013
same,glycan array binding signal (z-score),[25],-0.082
same,glycan array binding signal (z-score),[26],0.035
same,glycan array binding signal (z-score),[27],-0.112
same,glycan array binding signal (z-score),[28],0
same,glycan array binding signal (z-score),[29],-0.068
same,glycan array binding signal (z-score),[30],0.092
same,glycan array binding signal (z-score),[31],-0.002
